Among all 43,000 compounds or so, about 200 (0.47%) were called active. Not shown: some 12% with an inconclusive outcome. Calls come from the whole dose curve; as a rule, active = well fitted cell-killing curve with a large enough effect; inconclusive = small, poorly fitted or top-dose-only effect, or effect the other way; inactive = flat fitted curve, though single readings scatter. Some of the results follow.
% is set by controls: 0 for no effect and ±100 for the full control effect.

The experiment can be described thus: Cell viability qHTS assay in S16 Pmp22-F2sN cells. Note: nearly all actives have a fitted effect of over 65% in size. The settings on record: S16 Pmp22-F2sN Schwann cells viability, CellTiter-Glo, 24 h; series mostly up to 57.5 µM; activity change, negative = cytotoxicity: at the top concentration. The essentials:
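Viability was measured by CellTiter-Glo luminescence (15 min, room temperature). This followed 24 h at 37 °C of compound exposure (23 nL pin transfer) in S16 Pmp22-F2sN Schwann cells, 500-1,000 per well.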
For orientation: qHTS replaces the single test concentration by a dilution series.
`O=C(Cn1c(=O)n(-c2ccccc2)c(=O)c2ccc(C(=O)NCc3ccc4c(c3)OCO4)cc21)Nc1ccc(Br)cc1`: the “activity change, negative = cytotoxicity” value was inactive: -2.75%.
As to `Cc1ccc(C)c(N2CCN(C(=O)c3cc4c(=O)oc5ccccc5c4s3)CC2)c1`, the “activity change, negative = cytotoxicity” value is inactive: -4.47%.
With `O=C(CSc1nc2ncccc2o1)Nc1cccc(C(F)(F)F)c1` the figure was inactive: 1.24%; with `Cc1cc2oc(C(=O)Nc3cccc(-c4nc5ccccc5o4)c3)c(C)c2cc1C`, inactive: 16%; with `COc1ccc(-n2nc3cc(C)c(NC(=O)Cc4ccc(Cl)cc4)cc3n2)cc1`, inactive: -15.9%.
As for `CCOc1ccc(NC(=O)CSc2nnc(CNC(=O)C34CC5CC(CC(C5)C3)C4)n2CC)cc1`, the “activity change, negative = cytotoxicity” value was inactive: 15.8%.
On to `CCOC(=O)c1ccccc1NC(=O)Nc1cc2c(cc1N1CCCC1)n(C)c(=O)n2C`, for which the “activity change, negative = cytotoxicity” value was inactive: -1.56%.
Regarding `COc1cc(C(=O)N(Cc2ccc(N(C)C)cc2)CC2CCCO2)cc(OC)c1OC` (configuration not stated), the “activity change, negative = cytotoxicity” value was inactive: 5.1%.
Regarding `Cc1c(C(=O)N(C)C)sc2c1c(=O)n(-c1ccc(Cl)c(Cl)c1)c(=O)n2CC(=O)N1CCCCC1C` (configuration not stated), the “activity change, negative = cytotoxicity” value was inactive: 1.15%.
Regarding `CCCC12CN3CC(CCC)(CN(C1)C3c1ccc(OC(C)C)cc1)C2=O` (configuration not stated), the “activity change, negative = cytotoxicity” value is inactive: -3.81%.
As to `COc1cccc(Cn2c(C)c(CNC3CCCCC3)c(C(=O)O)c2C)c1`, the “activity change, negative = cytotoxicity” value was inactive: 6.95%.
For the compound `COc1ccc(-c2noc(-c3ccc(N4CCN(c5ccccc5OC)CC4)c([N+](=O)[O-])c3)n2)cc1`, the “activity change, negative = cytotoxicity” value is inactive: 0.881%.
With `O=C(CSc1nc(=O)n(Cc2ccncc2)c2c1CCC2)Nc1ccc(F)cc1F`, the “activity change, negative = cytotoxicity” value was inactive: 7.05%.
Consider `CCCN1CN=C(NS(=O)(=O)c2ccc(NC(C)=O)cc2)NC1`, for which the “activity change, negative = cytotoxicity” value was inactive: 3.3%.
Turning to `CC(Oc1ccccc1)C(=O)Nc1ccccc1C(=O)OCc1cc(=O)n2nc(C(C)C)sc2n1` (configuration not stated), the “activity change, negative = cytotoxicity” value is inactive: -5.1%.
As to `CCc1ccc(NC(=O)CSc2nc(-c3cccc(OC)c3)nc3c2Cc2c(CO)cnc(C)c2O3)cc1`, the “activity change, negative = cytotoxicity” value was inactive: 9.02%.
With `CCn1c(=O)c(=O)n(CC)c2cc(N3CCCCC3)c(NC(=O)c3ccccc3OC)cc21` the figure was inactive: 1.55%.
On to `CCOc1ccc(-c2nc(CSCC(=O)NCCc3ccc(OCC)c(OCC)c3)c(C)o2)cc1`, for which the “activity change, negative = cytotoxicity” value was inactive: -11.8%.
With `COc1ccccc1-c1c(C)nn2c(N3CCN(c4ccccc4)CC3)cc(C)nc12` the figure was inactive: -2.63%; with `CCCN1CCN(CC2=C(C(=O)OCC)C(c3ccc(OC(C)C)cc3)NC(=O)N2)CC1` (configuration not stated), inactive: -23.6%.
As to `O=C(Nc1ccc2nc(SCC(=O)N3CCOCC3)sc2c1)c1ccc(Br)cc1`, the “activity change, negative = cytotoxicity” value is inactive: 0.713%.
Turning to `CCC(C)NC(=O)CSc1c2c(nc3cc(Cl)ccc13)CCCC2` (configuration not stated), the “activity change, negative = cytotoxicity” value is inactive: 4.09%.
As for `C=Cc1ccc(Cn2c(C(=O)O)c(CNC3CCCCC3)c3ccc(OC)cc32)cc1`, the “activity change, negative = cytotoxicity” value was inactive: -0.205%.
Regarding `CCCOC1(C(F)(F)F)NC(=O)N(c2cccc(Cl)c2)C1=O` (configuration not stated), the “activity change, negative = cytotoxicity” value was inactive: 2.41%.
`COc1cccc(CNC(=O)C(=O)NCC(c2ccc3c(c2)OCO3)N2CCOCC2)c1` (configuration not stated): the “activity change, negative = cytotoxicity” value was inactive: -22.4%.
For `COc1ccc(OC)c(CNC(=O)CN2N=C(c3ccc(Cl)cc3)CCC2=O)c1`, the “activity change, negative = cytotoxicity” value is inactive: 11.2%.
With `Cc1ccc(-c2nnn(CC(=O)N(CC(=O)NCCC(C)C)c3ccc(F)cc3)n2)cc1`, the “activity change, negative = cytotoxicity” value is inactive: -3.43%.
For the compound `COc1ccccc1N1CCN(S(=O)(=O)c2cc(-c3cc(C)no3)ccc2C)CC1`, the “activity change, negative = cytotoxicity” value was inactive: 0.0784%.
`COc1cccc(CN2C(=O)C3(SCC(=O)N3c3cc(C)cc(C)c3)c3ccccc32)c1` (configuration not stated): the “activity change, negative = cytotoxicity” value is inactive: -0.57%.
Consider `O=C(c1ccc2c(c1)OCCO2)N(Cc1cccnc1)c1nc2ccc(Cl)cc2s1`, for which the “activity change, negative = cytotoxicity” value was inactive: 4.27%.
On to `O=C(NCCc1ccc(F)cc1)C(=O)NCC(c1ccc2c(c1)OCO2)N1CCOCC1` (configuration not stated), for which the “activity change, negative = cytotoxicity” value is inactive: 9.09%.
In the case of `Cc1ccc2nc(-c3c[nH]c4ccccc34)c(Nc3ccccc3)n2c1`, the “activity change, negative = cytotoxicity” value is inactive: -2.22%.
For the compound `Cc1coc2c1c(C)cc1oc(=O)c(CC(=O)NCc3ccc(Cl)cc3)c(C)c12`, the “activity change, negative = cytotoxicity” value is inactive: 10.1%.
In the case of `Cc1ccc(C(C)C)c(OCC(=O)Nc2nc3c(s2)CCCC3)c1`, the “activity change, negative = cytotoxicity” value is inactive: 1.33%.
In the case of `CCCCCOC(=O)c1ccc(Nc2nc(C(=O)OCC)nc3ccccc23)cc1`, the “activity change, negative = cytotoxicity” value is inactive: 29.2%.
Take `COc1ccccc1Oc1nc2c(C)cccn2c(=O)c1/C=C(\C#N)c1nc2ccccc2[nH]1`: the “activity change, negative = cytotoxicity” value is inactive: -1.32%.
With `Cc1nn(CC(=O)NCc2cccc(F)c2)c(=O)c2c(C)n(-c3ccc(Cl)cc3)nc12`, the “activity change, negative = cytotoxicity” value is inactive: -3.18%.
`Cc1ccc(CCNC(=O)c2cc3sccc3n2Cc2ccc(Cl)cc2)cc1`: the “activity change, negative = cytotoxicity” value was inactive: 9.17%.
For the compound `COc1ccc2nc(N(Cc3cccnc3)C(=O)c3ccco3)sc2c1`, the “activity change, negative = cytotoxicity” value is inactive: -22.1%.
With `COc1ccc(-n2cc(C(=O)NCc3ccc(Cl)cc3)c3ccccc3c2=O)cc1` the figure was inactive: 28.2%; with `Cc1ccc2c(c1)c1c(c(=O)n(-c3ccccc3)c(=O)n1CC(=O)NCCC1=CCCCC1)n2C`, inactive: 11.7%; with `COc1ccc(N(C(=O)c2ccccc2C)S(=O)(=O)c2ccc(C)cc2)cc1`, inactive: -17.9%.
Regarding `CC1CN(C(=O)CCC(=O)NCc2cccs2)c2cc(Cl)ccc2O1` (configuration not stated), the “activity change, negative = cytotoxicity” value was inactive: 1.47%.
With `CCOC(=O)C1=C(CN2CCN(c3cc(C)ccc3C)CC2)NC(=O)NC1c1ccccc1` (configuration not stated), the “activity change, negative = cytotoxicity” value is inactive: -8.66%.
For the compound `Cc1cc(C)c(S(=O)(=O)NCC(c2ccc(N(C)C)cc2)N2CCc3ccccc32)c(C)c1` (configuration not stated), the “activity change, negative = cytotoxicity” value is inactive: 0.973%.
`COc1ccc(CNC(=O)Cc2coc3ccc(C(C)C)cc23)cc1`: the “activity change, negative = cytotoxicity” value was inactive: -5.18%.
In the case of `O=C(CN1C(=O)COc2ccc(S(=O)(=O)N3CCCCC3)cc21)NCc1ccccc1Cl`, the “activity change, negative = cytotoxicity” value is inactive: -5.47%.
